In publication PMC9911399, “Two distinct binding modes provide the RNA-binding protein RbFox with extraordinary sequence specificity”:
Numbering of substitutions follows the chain as printed; changes in the protein carry UniProt numbers. This is one part of the list.

T1: RBFOX1 RRM (Homo sapiens, UniProt Q9NWB1 109-208)
T1 sequence: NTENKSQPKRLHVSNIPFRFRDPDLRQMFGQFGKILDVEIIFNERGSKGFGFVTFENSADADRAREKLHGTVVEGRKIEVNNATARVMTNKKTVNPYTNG

B1: GAUAUGA (DNA:RNA)
RNA: GGGAGACCGGAAUUCAGAUUGUCCGAUAUGAUUAAAUCCCGUCGUAGCCACCA
DNA 1: CAATCTGAATTCCGGTCTCCC
DNA 2: TGGTGGCTACGACGGGATT
B2: AAGCAGA (DNA:RNA)
RNA: B1 RNA with G25A, U27G, A28C, U29A
DNA 1: CAATCTGAATTCCGGTCTCCC
DNA 2: TGGTGGCTACGACGGGATT
B3: AUUUGUG (DNA:RNA)
RNA: B1 RNA with G25A, A26U, A28U, U29G, G30U, A31G
DNA 1: CAATCTGAATTCCGGTCTCCC
DNA 2: TGGTGGCTACGACGGGATT
B4: UAUUAGU (DNA:RNA)
RNA: B1 RNA with G25U, A28U, U29A, A31U
DNA 1: CAATCTGAATTCCGGTCTCCC
DNA 2: TGGTGGCTACGACGGGATT
B5: CGUGAUA (DNA:RNA)
RNA: B1 RNA with G25C, A26G, A28G, U29A, G30U
DNA 1: CAATCTGAATTCCGGTCTCCC
DNA 2: TGGTGGCTACGACGGGATT
B6: CCUAGUC (DNA:RNA)
RNA: B1 RNA with G25C, A26C, U29G, G30U, A31C
DNA 1: CAATCTGAATTCCGGTCTCCC
DNA 2: TGGTGGCTACGACGGGATT
B7: AACGUGU (DNA:RNA)
RNA: B1 RNA with G25A, U27C, A28G, A31U
DNA 1: CAATCTGAATTCCGGTCTCCC
DNA 2: TGGTGGCTACGACGGGATT
B8: UCGCGGU (DNA:RNA)
RNA: B1 RNA with G25U, A26C, U27G, A28C, U29G, A31U
DNA 1: CAATCTGAATTCCGGTCTCCC
DNA 2: TGGTGGCTACGACGGGATT
B9: CAUUAGG (DNA:RNA)
RNA: B1 RNA with G25C, A28U, U29A, A31G
DNA 1: CAATCTGAATTCCGGTCTCCC
DNA 2: TGGTGGCTACGACGGGATT
B10: AGGCAAA (DNA:RNA)
RNA: B1 RNA with G25A, A26G, U27G, A28C, U29A, G30A
DNA 1: CAATCTGAATTCCGGTCTCCC
DNA 2: TGGTGGCTACGACGGGATT
B11: GGGGGGG (DNA:RNA)
RNA: B1 RNA with A26G, U27G, A28G, U29G, A31G
DNA 1: CAATCTGAATTCCGGTCTCCC
DNA 2: TGGTGGCTACGACGGGATT
B12: AUGAGCU (DNA:RNA)
RNA: B1 RNA with G25A, A26U, U27G, U29G, G30C, A31U
DNA 1: CAATCTGAATTCCGGTCTCCC
DNA 2: TGGTGGCTACGACGGGATT
B13: ACGUCUA (DNA:RNA)
RNA: B1 RNA with G25A, A26C, U27G, A28U, U29C, G30U
DNA 1: CAATCTGAATTCCGGTCTCCC
DNA 2: TGGTGGCTACGACGGGATT
B14: UCUCGCU (DNA:RNA)
RNA: B1 RNA with G25U, A26C, A28C, U29G, G30C, A31U
DNA 1: CAATCTGAATTCCGGTCTCCC
DNA 2: TGGTGGCTACGACGGGATT
B15: AAACUGU (DNA:RNA)
RNA: B1 RNA with G25A, U27A, A28C, A31U
DNA 1: CAATCTGAATTCCGGTCTCCC
DNA 2: TGGTGGCTACGACGGGATT
B16: CUAAAAU (DNA:RNA)
RNA: B1 RNA with G25C, A26U, U27A, U29A, G30A, A31U
DNA 1: CAATCTGAATTCCGGTCTCCC
DNA 2: TGGTGGCTACGACGGGATT
B17: AUUUCCC (DNA:RNA)
RNA: B1 RNA with G25A, A26U, A28U, U29C, G30C, A31C
DNA 1: CAATCTGAATTCCGGTCTCCC
DNA 2: TGGTGGCTACGACGGGATT
B18: UGCCAAC (DNA:RNA)
RNA: GGGAGACCGGAAUUCAGAUUGUCCUGCCAACUUAAAUCCCGUCGUAGCCACCA
DNA 1: CAATCTGAATTCCGGTCTCCC
DNA 2: TGGTGGCTACGACGGGATT
B19: UUUCGAA (DNA:RNA)
RNA: B18 RNA with G26U, C27U, A29G, C31A
DNA 1: CAATCTGAATTCCGGTCTCCC
DNA 2: TGGTGGCTACGACGGGATT
B20: GUUUCUU (DNA:RNA)
RNA: B1 RNA with A26U, A28U, U29C, G30U, A31U
DNA 1: CAATCTGAATTCCGGTCTCCC
DNA 2: TGGTGGCTACGACGGGATT
B21: CCUGUCU (DNA:RNA)
RNA: B1 RNA with G25C, A26C, A28G, G30C, A31U
DNA 1: CAATCTGAATTCCGGTCTCCC
DNA 2: TGGTGGCTACGACGGGATT
B22: CCGCUCC (DNA:RNA)
RNA: B18 RNA with U25C, G26C, C27G, A29U, A30C
DNA 1: CAATCTGAATTCCGGTCTCCC
DNA 2: TGGTGGCTACGACGGGATT
B23: UACGUUC (DNA:RNA)
RNA: B18 RNA with G26A, C28G, A29U, A30U
DNA 1: CAATCTGAATTCCGGTCTCCC
DNA 2: TGGTGGCTACGACGGGATT
B24: CUACCAA (DNA:RNA)
RNA: B18 RNA with U25C, G26U, C27A, A29C, C31A
DNA 1: CAATCTGAATTCCGGTCTCCC
DNA 2: TGGTGGCTACGACGGGATT
B25: CCGCACA (DNA:RNA)
RNA: B18 RNA with U25C, G26C, C27G, A30C, C31A
DNA 1: CAATCTGAATTCCGGTCTCCC
DNA 2: TGGTGGCTACGACGGGATT
B26: AGCUCGC (DNA:RNA)
RNA: B18 RNA with U25A, C28U, A29C, A30G
DNA 1: CAATCTGAATTCCGGTCTCCC
DNA 2: TGGTGGCTACGACGGGATT
B27: CUUAUAA (DNA:RNA)
RNA: B1 RNA with G25C, A26U, G30A
DNA 1: CAATCTGAATTCCGGTCTCCC
DNA 2: TGGTGGCTACGACGGGATT
B28: UGCGGGA (DNA:RNA)
RNA: B18 RNA with C28G, A29G, A30G, C31A
DNA 1: CAATCTGAATTCCGGTCTCCC
DNA 2: TGGTGGCTACGACGGGATT
B29: GGCGGUU (DNA:RNA)
RNA: B18 RNA with U25G, C28G, A29G, A30U, C31U
DNA 1: CAATCTGAATTCCGGTCTCCC
DNA 2: TGGTGGCTACGACGGGATT
B30: AUGCUGA (DNA:RNA)
RNA: B1 RNA with G25A, A26U, U27G, A28C
DNA 1: CAATCTGAATTCCGGTCTCCC
DNA 2: TGGTGGCTACGACGGGATT
B31: UACUUCU (DNA:RNA)
RNA: B1 RNA with G25U, U27C, A28U, G30C, A31U
DNA 1: CAATCTGAATTCCGGTCTCCC
DNA 2: TGGTGGCTACGACGGGATT

Each binder was assayed against T1, RBFOX1 RRM (assay: EMSA; HiTS-Eq, 1 nM pool, 10 min; buffer printed only for the single-RNA assays: 10 mM Tris pH 7.5, 150 mM NaCl, 3.4 mM EDTA, 0.001% NP-40, 30 C). Settings: tags: His6 N-terminal (pET28a); label: 5' 32P.
Summary of the method: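 Purified wild-type or mutant RbFox RRM at increasing concentrations was equilibrated with 1 nM of 5′-radiolabelled RNA carrying 7 randomized nucleotides for 10 min in 50 µL. Unbound RNA was separated by 8% native PAGE and sequenced. Relative association constants came from read-count changes of each RNA species compared with the control reaction, normalised to the cognate motif.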
B1 was tested, and the binding signal was 0.0126 KA relative to UGCAUGU. In the case of B2, the binding signal is reported as 0.0037 KA relative to UGCAUGU. B3 was tested, and the binding signal was 0.0207 KA relative to UGCAUGU. In the case of B4, the binding signal is reported as 0.0147 KA relative to UGCAUGU. For B5, the binding signal was 0.00767 KA relative to UGCAUGU. For B6, the binding signal was 0.00613 KA relative to UGCAUGU. For B7, the binding signal was 0.00705 KA relative to UGCAUGU. For B8, the binding signal was 0.0136 KA relative to UGCAUGU. For B9, the binding signal was 0.00819 KA relative to UGCAUGU. B10 was tested, and the binding signal was 0.00462 KA relative to UGCAUGU. With B11 the binding signal was 0.0247 KA relative to UGCAUGU. B12 was tested, and the binding signal was 0.00823 KA relative to UGCAUGU. With B13 the binding signal was 0.00358 KA relative to UGCAUGU. In the case of B14, the binding signal is reported as 0.0104 KA relative to UGCAUGU. B15 was tested, and the binding signal was 0.00602 KA relative to UGCAUGU. B16 was tested, and the binding signal was 0.00148 KA relative to UGCAUGU. For B17, the binding signal was 0.00575 KA relative to UGCAUGU. For B18, the binding signal was 0.0122 KA relative to UGCAUGU. For B19, the binding signal was 0.0132 KA relative to UGCAUGU. In the case of B20, the binding signal is reported as 0.0153 KA relative to UGCAUGU. With B21 the binding signal was 0.0102 KA relative to UGCAUGU. B22 was tested, and the binding signal was 0.0062 KA relative to UGCAUGU. With B23 the binding signal was 0.00951 KA relative to UGCAUGU. For B24, the binding signal was 0.00122 KA relative to UGCAUGU. In the case of B25, the binding signal is reported as 0.0109 KA relative to UGCAUGU. For B26, the binding signal was 0.0182 KA relative to UGCAUGU. In the case of B27, the binding signal is reported as 0.00174 KA relative to UGCAUGU. For B28, the binding signal was 0.00758 KA relative to UGCAUGU. For B29, the binding signal was 0.0237 KA relative to UGCAUGU. With B30 the binding signal was 0.0196 KA relative to UGCAUGU. In the case of B31, the binding signal is reported as 0.00405 KA relative to UGCAUGU.
